Laboratory results taken from the RNAGym collection of RNA variant scans (doi:10.7554/elife.90254).
Read counts are not given, so values of variants with three or more changes are uncertain.

B1: LINE1-mini (parent)
chain: GGCAGAGCUCAACACAGCGUGGCAAAGUGGCUGUGGCUAGACUGCC

Variants of: B1
Test: self-cleavage, relative activity (ratio to wild type); higher = more cleavage; in vitro, sequencing; the parent is a self-cleaving ribozyme

Variant	self-cleavage
C18A G19A A25U	1.18
C18G C37G A41U	0.04
C18G G21U G27A U28C	0.72
C18A U43G G44A C45A	0.05
G17U A24G G29A C46G	0.11
G17U U38A C46G	0.07
C18A U20A U34A	0.04
C18G A24U U38G C42G	0.05
C18A G33A C42A	0.02
G17C U20A A25C C45U	0.04
G17U G36U G40U	0.03
G17C U20G C23U U32G G33C	0.05
G17U A26G G29U	0.81
C18A G22A U43A	0.04
C18A C23A U28G U34G	0.07
G17C U20G A24U A41C	0.03
C18A C23U A25G G29C G36U C42A	0.02
G17U C18G G19A	0.02
G17C G35C A39G C42A G44U	0
G17U G29C G40U	0.07
G17U U32C G36C A39C G40U	0.05
G17U C31U G40U C46A	0.02
C18G A26G C37A	0.09
C18A C23G C31U C37G U43A	0.01

Variant	self-cleavage
G17U C37U U38G	0.03
C18A G27U C46U	0.55
C18G G21C G27C U34A	0.02
G17U A26U U43A	0.05
G17U U20A G22U G35U	0.02
G17U U38C C45G	0.05
G17U C18U A26C G33A	0.09
G17U C18A G22A C45G	0.07
G17U G29U C46G	0.77
G17U G21U G27U	0.92
G17U G29A C37U A41G C45A	0
C18A G22A C31U	0.02
C18A G27U A39G	0.17
C18G C31U U32A	0.02
C18A C42U U43A	0.11
G17U G19U A26U G30U	0.06
C18A U38A A41U	0.09
C18A C31A C46U	0.06
G17U G19U G27A	0.05
C18A U32C G33U C42A	0.09
C18A G36A C46A	0.05
C18A G27C G35U G44C	0.01
C18A U34C C42G	0.05
C18G A25C G33A C46G	0.02

Variant	self-cleavage
C18A G27A U32A	0.03
C18G G21U A41U C42G	0.03
C18G G21U U32G	0.17
G17C U32G C37G	0.02
C18A G22C U28A G33C	0.03
C18A A25U U28G	0.17
G17U G22C U34A G40U	0.01
G17U G40U A41C C45G	0
G17U U20A U34C G40U	0.01
G17C U34G G36C C37G A39U	0.01
G17U G21U C42A	0.05
G17C U20C C31A	0.48
G17C U20C C31G	0.1
G17U C23A G33C A41G	0.02
C18A C23G A26G A39U	0.15
C18A G27U U32G	0.03
C18A U32A U43G C45A	0.02
C18A G35A G36A G40C C42G	0.01
C18A G35C G36U	0.03
G17U G22A A26C G35C	0.12
C18G G21A U28C C37A	0.05
G17U G27A G33U U43G C45A	0.06
C18A G19U G21C G29A G44C	1.11
C18A G27C U32G	0.23

Variant	self-cleavage
C18A C31U C45U	0.04
C18A C37G A39G	0.15
C18A G27U G33C	0.02
G17U U20G C45U	0.02
G17U C18A A39U	0.11
C18G G21U C42A C45G	0.02
G17U G30U A39G	0.03
G17U A24C U28G C42U	0.03
G17U C23A G36C	0.01
G17U C23U G30U G36C U38G	0.02
C18G A26U C31A	0.05
C18A C37U G44U	0.05
C18A U20A U34A C42A	0.17
G17U U38A C42G U43G	0.01
G17U G22A C31A G44C C46G	0.03
C18A C31G C45G	0.01
G17U G22A G30U	0.14
G17U G21C G27U C45A	0.03
G17U G19A U20C A26U U32C	0.02
C18A A24G G44U	0.03
G17U G22A C31G	0.76
C18G G19U C37G	0.01
C18A G19C C46U	0.37
G17U C23G G29A U34G C37U	0.02

Variant	self-cleavage
C18G G19A C37G C42A	0.05
C18G C31U G40A	0.01
G17U C18U A24C C31U C37G	0.04
C18G C31U C42U	0.03
C18A G21U G27C C31U	0.03
C18G G19C C31A G36U	0.03
G17U C23U G36U A39G	0.02
G17U G27U A41C C46U	0.03
G17U U20A G30C	0.68
C18A G27C C45U	0.47
C18G A24C A25G G29C G33U	0.02
C18G C23U G40C	0.04
C18A G30U C45A	0.21
C18G C37U A39U	0.22
C18A G40C C46U	0.03
G17U G19C G29A A39U	0.13
G17U C23A G29U	0.13
G17U C18U G44A	0.01
C18G C23U G30A	0.62
C18G C23U G30C	0.64
G17U G27A G40U	0.03
C18A G19A C31A G35U	0.02
G17U C18A G27A U28A U38G C42A	0.09
C18A G36C C37G A41C	0.01

Variant	self-cleavage
C18A U28C G29A G40C	0.05
G17U C18U U28C	0.13
C18A G22A G30U G44C	0.08
G17C U28G G36U	0.03
G17U A25C A26C	0.1
C18G A25U G29U	0.93
C18A C23A U32C U38G C42U	0
C18G G19A U28C	1.04
C18G G21U A26G G35U	0.04
C18A G22C G33C	0.02
C18A G22C G33A	0.03
G17U C18A U32G U43A	0.04
C18A U32A G33U A39G A41U	0.02
G17U G19C G27U	0.52
C18A G27A C37A	0.03
C18A U28A U34A A41C	0
G17C U20A A24U C31G	0.15
C18A U28A A39G	0.02
G17U G36A U38C	0.02
C18G A39G G40C C45U	0.02
G17U A41C G44A	0.02
C18A C23U G30A U32A C45U	0.06
C18A G27C C31G C46A	0.01
G17U G35A C45U	0.01

Variant	self-cleavage
G17U U20G G40A	0.07
C18G C23U A25C A39U	0.12
G17C U28C A41C U43A	0
C18A G21A G22U A25G G27A A41G	0.16
C18G G19A U43G	0.03
G17U U20A C31U G36C	0.02
G17U C18U U20C A24G G30U	0.02
C18A U32G G44U C46A	0.02
G17U G29U G30U A41G	0.06
C18A G19U G35A C42A	0.02
G17U U32A G33C G36C	0.02
G17U U34G U38G	0.08
G17U G30C C31A C37A	0.04
G17U G30U C46U	0.02
G17U C23U G29U A39G C42G	0.09
C18A G22U A26G C45A	0.03
G17U G21U A24C G29C	1.65
C18A G21U G35C	0.01
G17U C31U U32A	0.15
G17U C31U U32C	0.04
C18A A26C C42U	0.1
C18A G19C C23A	1.07
G17U U38G A41G	0.01
